The list shows a part of the results.
target: T1, OsWOX13 (Oryza sativa, UniProt Q5QMM3 1-267); assay: protein-binding microarray (RPBM); PBS, 2% BSA, 51.3 ng/ul salmon testes DNA, 50 uM zinc acetate, 200 nM TF, 25 C, 1 h; high values mean tight binding; settings: protein: recombinant; tags: N-terminal polyhistidine and DsRed monomer fusion (pET32a); label: CyDye5-dUTP incorporated in the synthesized complementary strand; 3' TTTTT single-stranded linker to array surface; dsDNA, one strand shown
T1 sequence: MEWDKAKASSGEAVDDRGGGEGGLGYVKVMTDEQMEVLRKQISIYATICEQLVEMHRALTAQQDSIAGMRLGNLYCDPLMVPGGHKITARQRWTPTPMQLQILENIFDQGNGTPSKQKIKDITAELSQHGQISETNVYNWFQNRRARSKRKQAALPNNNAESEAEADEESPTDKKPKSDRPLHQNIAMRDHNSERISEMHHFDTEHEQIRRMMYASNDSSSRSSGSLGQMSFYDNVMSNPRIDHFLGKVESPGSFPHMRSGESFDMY
Outline: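 Using Ni–NTA, transcription factors fused N-terminally to polyhistidine and DsRed were purified after expression in E. coli BL21-CodonPlus. These were incubated at 200 nM with a blocked, double-stranded custom Agilent array for 1 h at 25 °C in a buffer containing 50 µM zinc acetate, and the array was washed. The binding signal is per-feature fluorescence intensity (arbitrary units) on an Axon 4000B scanner.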

Sequence	binding signal
TTAAATCACATGACTTTCAGTTATTGACATATGGACCCTCCGGAGTCACCTAGTGCAG	9300 fluorescence intensity (a.u.)
ATTTTGAAATTTTAATTTTAAAATTACATTTTGGGACAAACGGAGTCACCTAGTGCAG	8130 fluorescence intensity (a.u.)
TGTTAAATTGTATCAAGCATGTGCTGGAGCTGTAAAATTGCGGAGTCACCTAGTGCAG	5150 fluorescence intensity (a.u.)
TTTTAATATAACAAATTTGGATAACTAAGATGTGCCACATCGGAGTCACCTAGTGCAG	3750 fluorescence intensity (a.u.)
GCTCTCTTATGATTTGTTATAACTTAAGTTTTACTGGAACCGGAGTCACCTAGTGCAG	9670 fluorescence intensity (a.u.)
CACACTGTGATTGAGATTATACATGTAGACATATTAAACACGGAGTCACCTAGTGCAG	16700 fluorescence intensity (a.u.)
CAATTTGTAATAAATTAGTTAATTACAGTAGCATTTGGAACGGAGTCACCTAGTGCAG	19200 fluorescence intensity (a.u.)
ACCTGATGGACAAGCTTTCCATCTCTTTAGCATTAATCCTCGGAGTCACCTAGTGCAG	17400 fluorescence intensity (a.u.)
TCAGCTAACTTTCTATAATTGGCTCAGCCCTAATCTACAACGGAGTCACCTAGTGCAG	10200 fluorescence intensity (a.u.)
CAAATTCATTCTAATTTAATCAAAATTTTAAATAATTTCGCGGAGTCACCTAGTGCAG	13300 fluorescence intensity (a.u.)
TGATAATTTAATTTGAAGACACCATCCATTGAATACATAGCGGAGTCACCTAGTGCAG	37100 fluorescence intensity (a.u.)
CACCATTGAGTTATAATCTAATCACGTATAATACTTTTGACGGAGTCACCTAGTGCAG	4320 fluorescence intensity (a.u.)
GCCCTTAGATCATTGTGATTGGCTGGATTACATGGACCCGCGGAGTCACCTAGTGCAG	19600 fluorescence intensity (a.u.)
TTTACAAAGCTTAATTAAGTTTCATCAAATCGTATAAAGTCGGAGTCACCTAGTGCAG	6950 fluorescence intensity (a.u.)
TTAGACTAATACTTAGTTAATCACGCTTGGATTTGTCTACCGGAGTCACCTAGTGCAG	3390 fluorescence intensity (a.u.)
ATTTATGTAATTAGTTTTGTAAGTAGTCTATATTTAATACCGGAGTCACCTAGTGCAG	3780 fluorescence intensity (a.u.)
TGCTTAAATTACTTTGGATAATAAAGTAAGTCACAAATAACGGAGTCACCTAGTGCAG	3730 fluorescence intensity (a.u.)
CCCATTTTAATTAGTCTCTTCCTAGTGAAAAGTAGATTGTCGGAGTCACCTAGTGCAG	8570 fluorescence intensity (a.u.)
AAGCAATTAAGCAAATCGAGACGTCTCGAGGAGGCCAAGCCGGAGTCACCTAGTGCAG	4770 fluorescence intensity (a.u.)
TTTTGACAACAACAGATTGCTAGGGTTCTGGTTCTCTCCCCGGAGTCACCTAGTGCAG	15300 fluorescence intensity (a.u.)
CTAATGATAATTGAGGATTTGAGGTGGCCAAATGAAGTACCGGAGTCACCTAGTGCAG	28500 fluorescence intensity (a.u.)

Sequence	binding signal
GAAAATCAGTTTGTGATTTGACTAGCTAGTTGCTTCTGCCCGGAGTCACCTAGTGCAG	11600 fluorescence intensity (a.u.)
TGTGTTAAACTATATAATTTTCTCTAAAACATAATGGTACCGGAGTCACCTAGTGCAG	3720 fluorescence intensity (a.u.)
CACTATTAATTGTGCTTAGAGCAAGTTTAATAGTGTAGCCCGGAGTCACCTAGTGCAG	9860 fluorescence intensity (a.u.)
TCAGTCCCCAAACAAATTATAATTTTGCATCATATTTTACCGGAGTCACCTAGTGCAG	6390 fluorescence intensity (a.u.)
ACATTGATCACCCCTTTTCATCTTCTCAGTCAACAGGTCTCGGAGTCACCTAGTGCAG	3240 fluorescence intensity (a.u.)
AGAGTTCTGATTGAATTTGAACAGAAGCGGTGCTTTTGGACGGAGTCACCTAGTGCAG	38800 fluorescence intensity (a.u.)
CTTGACGAGAAGACGTTCAGGACGAGCGGCGATGGCGGCCCGGAGTCACCTAGTGCAG	7170 fluorescence intensity (a.u.)
TGCGGGTTGTTTTGATTGACAATTTAGTGTTGGTGTTGTTCGGAGTCACCTAGTGCAG	26700 fluorescence intensity (a.u.)
ATGATGATTGACTTATGTGAATATATTGTCTATATATGCACGGAGTCACCTAGTGCAG	60300 fluorescence intensity (a.u.)
CAAAATGCATAACTAATTTTATTTTAAGACAGAAAGAGCACGGAGTCACCTAGTGCAG	12700 fluorescence intensity (a.u.)
CTAATTAACACAAAGATATACTTTTCCTCCTATATCCACTCGGAGTCACCTAGTGCAG	11000 fluorescence intensity (a.u.)
CATCCTAGATTGCTATATTCTGGAGGGAGTAATTAGGAGTCGGAGTCACCTAGTGCAG	7180 fluorescence intensity (a.u.)
CATAGTATACTAATTATATTTAGATTATAGTGTAATAACACGGAGTCACCTAGTGCAG	7370 fluorescence intensity (a.u.)
AAGTGATTATCTATTTCTACTTTTGGTCCAATAGTTATTGCGGAGTCACCTAGTGCAG	30400 fluorescence intensity (a.u.)
ATTTGGATTGGTTTTCTACTAAATTGATGTCCTTAAAGCTCGGAGTCACCTAGTGCAG	19600 fluorescence intensity (a.u.)
TGACTAATTAGAATCCCTCCCCGTATGAATGCAGCTCATACGGAGTCACCTAGTGCAG	22400 fluorescence intensity (a.u.)
GTAATTGCTAATGGGCCTTTCGTCTTAGATGGGCCTCCAACGGAGTCACCTAGTGCAG	4760 fluorescence intensity (a.u.)
GGAGTGCCAATCAAAACCCAGATGTACCCATCAACAGCCACGGAGTCACCTAGTGCAG	11400 fluorescence intensity (a.u.)
TCTACTGATTTATATTCTTGTCTTATCACATTATCACCATCGGAGTCACCTAGTGCAG	23600 fluorescence intensity (a.u.)
AGCAATTGAGATAATCAAAACATTTTAGTTTGTTAGAGAGCGGAGTCACCTAGTGCAG	12200 fluorescence intensity (a.u.)
ATTTCTGTGATTACTCAGTGGTTGCCATGGCGTCTGTCTGCGGAGTCACCTAGTGCAG	8160 fluorescence intensity (a.u.)

From article PMC7819943, “Rice protein-binding microarrays: a tool to detect cis-acting elements near promoter regions in rice”
